# Reference: article PMC9911399, “Two distinct binding modes provide the RNA-binding protein RbFox with extraordinary sequence specificity”
# Changes are numbered by the printed parent chain; changes in the protein carry UniProt numbers. Some of the results follow.
# T1: RBFOX1 RRM RbFoxmut (Fox-RRM*) (Homo sapiens, UniProt Q9NWB1 109-208, R118D;E147R;N151S;E152T)
# T1 sequence: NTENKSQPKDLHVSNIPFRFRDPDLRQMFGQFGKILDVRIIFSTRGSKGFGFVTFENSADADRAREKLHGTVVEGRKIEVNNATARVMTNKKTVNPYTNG
# B1: CACCCUA (DNA:RNA)
# RNA: GGGAGACCGGAAUUCAGAUUGUCCCACCCUAUUAAAUCCCGUCGUAGCCACCA
# DNA 1: CAATCTGAATTCCGGTCTCCC
# DNA 2: TGGTGGCTACGACGGGATT
# B2: AAAACAU (DNA:RNA)
# RNA: B1 RNA with C25A, C27A, C28A, U30A, A31U
# DNA 1: CAATCTGAATTCCGGTCTCCC
# DNA 2: TGGTGGCTACGACGGGATT
# B3: UAUUCCU (DNA:RNA)
# RNA: B1 RNA with C25U, C27U, C28U, U30C, A31U
# DNA 1: CAATCTGAATTCCGGTCTCCC
# DNA 2: TGGTGGCTACGACGGGATT
# B4: AACCAGG (DNA:RNA)
# RNA: B1 RNA with C25A, C29A, U30G, A31G
# DNA 1: CAATCTGAATTCCGGTCTCCC
# DNA 2: TGGTGGCTACGACGGGATT
# B5: UAUAUCA (DNA:RNA)
# RNA: B1 RNA with C25U, C27U, C28A, C29U, U30C
# DNA 1: CAATCTGAATTCCGGTCTCCC
# DNA 2: TGGTGGCTACGACGGGATT
# B6: CACUGGA (DNA:RNA)
# RNA: B1 RNA with C28U, C29G, U30G
# DNA 1: CAATCTGAATTCCGGTCTCCC
# DNA 2: TGGTGGCTACGACGGGATT
# B7: AAACAGC (DNA:RNA)
# RNA: B1 RNA with C25A, C27A, C29A, U30G, A31C
# DNA 1: CAATCTGAATTCCGGTCTCCC
# DNA 2: TGGTGGCTACGACGGGATT
# B8: GAGAGAG (DNA:RNA)
# RNA: B1 RNA with C25G, C27G, C28A, C29G, U30A, A31G
# DNA 1: CAATCTGAATTCCGGTCTCCC
# DNA 2: TGGTGGCTACGACGGGATT
# B9: AUACCUC (DNA:RNA)
# RNA: B1 RNA with C25A, A26U, C27A, A31C
# DNA 1: CAATCTGAATTCCGGTCTCCC
# DNA 2: TGGTGGCTACGACGGGATT
# B10: CGGUGGA (DNA:RNA)
# RNA: B1 RNA with A26G, C27G, C28U, C29G, U30G
# DNA 1: CAATCTGAATTCCGGTCTCCC
# DNA 2: TGGTGGCTACGACGGGATT
# B11: CUACUAC (DNA:RNA)
# RNA: B1 RNA with A26U, C27A, C29U, U30A, A31C
# DNA 1: CAATCTGAATTCCGGTCTCCC
# DNA 2: TGGTGGCTACGACGGGATT
# B12: GGCGCUG (DNA:RNA)
# RNA: B1 RNA with C25G, A26G, C28G, A31G
# DNA 1: CAATCTGAATTCCGGTCTCCC
# DNA 2: TGGTGGCTACGACGGGATT
# B13: CGACAGC (DNA:RNA)
# RNA: B1 RNA with A26G, C27A, C29A, U30G, A31C
# DNA 1: CAATCTGAATTCCGGTCTCCC
# DNA 2: TGGTGGCTACGACGGGATT
# B14: UGGUUCA (DNA:RNA)
# RNA: B1 RNA with C25U, A26G, C27G, C28U, C29U, U30C
# DNA 1: CAATCTGAATTCCGGTCTCCC
# DNA 2: TGGTGGCTACGACGGGATT
# B15: AGAUCCU (DNA:RNA)
# RNA: B1 RNA with C25A, A26G, C27A, C28U, U30C, A31U
# DNA 1: CAATCTGAATTCCGGTCTCCC
# DNA 2: TGGTGGCTACGACGGGATT
# B16: AGGCUCA (DNA:RNA)
# RNA: B1 RNA with C25A, A26G, C27G, C29U, U30C
# DNA 1: CAATCTGAATTCCGGTCTCCC
# DNA 2: TGGTGGCTACGACGGGATT
# B17: UCUUUCU (DNA:RNA)
# RNA: GGGAGACCGGAAUUCAGAUUGUCCUCUUUCUUUAAAUCCCGUCGUAGCCACCA
# DNA 1: CAATCTGAATTCCGGTCTCCC
# DNA 2: TGGTGGCTACGACGGGATT
# B18: CCUCUAC (DNA:RNA)
# RNA: B17 RNA with U25C, U28C, C30A, U31C
# DNA 1: CAATCTGAATTCCGGTCTCCC
# DNA 2: TGGTGGCTACGACGGGATT
# B19: CGAUGAG (DNA:RNA)
# RNA: B1 RNA with A26G, C27A, C28U, C29G, U30A, A31G
# DNA 1: CAATCTGAATTCCGGTCTCCC
# DNA 2: TGGTGGCTACGACGGGATT
# B20: CAGAUAA (DNA:RNA)
# RNA: B1 RNA with C27G, C28A, C29U, U30A
# DNA 1: CAATCTGAATTCCGGTCTCCC
# DNA 2: TGGTGGCTACGACGGGATT
# B21: CUGAAGU (DNA:RNA)
# RNA: B1 RNA with A26U, C27G, C28A, C29A, U30G, A31U
# DNA 1: CAATCTGAATTCCGGTCTCCC
# DNA 2: TGGTGGCTACGACGGGATT
# B22: CGAAAUC (DNA:RNA)
# RNA: B1 RNA with A26G, C27A, C28A, C29A, A31C
# DNA 1: CAATCTGAATTCCGGTCTCCC
# DNA 2: TGGTGGCTACGACGGGATT
# B23: CUAGGGU (DNA:RNA)
# RNA: B1 RNA with A26U, C27A, C28G, C29G, U30G, A31U
# DNA 1: CAATCTGAATTCCGGTCTCCC
# DNA 2: TGGTGGCTACGACGGGATT
# B24: CUCGGUC (DNA:RNA)
# RNA: B1 RNA with A26U, C28G, C29G, A31C
# DNA 1: CAATCTGAATTCCGGTCTCCC
# DNA 2: TGGTGGCTACGACGGGATT
# B25: CUGAUGU (DNA:RNA)
# RNA: B17 RNA with U25C, C26U, U27G, U28A, C30G
# DNA 1: CAATCTGAATTCCGGTCTCCC
# DNA 2: TGGTGGCTACGACGGGATT
# B26: AGGGCAA (DNA:RNA)
# RNA: B1 RNA with C25A, A26G, C27G, C28G, U30A
# DNA 1: CAATCTGAATTCCGGTCTCCC
# DNA 2: TGGTGGCTACGACGGGATT
# B27: UAAAACG (DNA:RNA)
# RNA: B17 RNA with C26A, U27A, U28A, U29A, U31G
# DNA 1: CAATCTGAATTCCGGTCTCCC
# DNA 2: TGGTGGCTACGACGGGATT
# B28: ACUUGUA (DNA:RNA)
# RNA: B17 RNA with U25A, U29G, C30U, U31A
# DNA 1: CAATCTGAATTCCGGTCTCCC
# DNA 2: TGGTGGCTACGACGGGATT
# B29: GAAGUGG (DNA:RNA)
# RNA: B1 RNA with C25G, C27A, C28G, C29U, U30G, A31G
# DNA 1: CAATCTGAATTCCGGTCTCCC
# DNA 2: TGGTGGCTACGACGGGATT
# B30: CUAGAAA (DNA:RNA)
# RNA: B1 RNA with A26U, C27A, C28G, C29A, U30A
# DNA 1: CAATCTGAATTCCGGTCTCCC
# DNA 2: TGGTGGCTACGACGGGATT
# B31: UCACUAA (DNA:RNA)
# RNA: B17 RNA with U27A, U28C, C30A, U31A
# DNA 1: CAATCTGAATTCCGGTCTCCC
# DNA 2: TGGTGGCTACGACGGGATT
# Biological target: T1, RBFOX1 RRM RbFoxmut (Fox-RRM*)
# Test: EMSA; HiTS-Eq, 1 nM pool, 10 min; buffer printed only for the single-RNA assays: 10 mM Tris pH 7.5, 150 mM NaCl, 3.4 mM EDTA, 0.001% NP-40, 30 C
# Conditions: tags: His6 N-terminal (pET28a); label: 5' 32P
# In short: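 Relative association constants, normalised to the cognate motif, were derived by comparing read counts of each RNA species with those of the control reaction. The RNA sequenced was the free fraction, separated by 8% native PAGE after a 10 min equilibration in 50 µL of 1 nM 5′-radiolabelled RNA (7 randomized nucleotides) with increasing concentrations of purified wild-type or mutant RbFox RRM.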
row,Binder,binding signal
1,B1,0.0853 KA relative to UGCAUGU
2,B2,0.0651 KA relative to UGCAUGU
3,B3,0.063 KA relative to UGCAUGU
4,B4,0.0758 KA relative to UGCAUGU
5,B5,0.0818 KA relative to UGCAUGU
6,B6,0.08 KA relative to UGCAUGU
7,B7,0.084 KA relative to UGCAUGU
8,B8,0.0964 KA relative to UGCAUGU
9,B9,0.0532 KA relative to UGCAUGU
10,B10,0.0945 KA relative to UGCAUGU
11,B11,0.105 KA relative to UGCAUGU
12,B12,0.135 KA relative to UGCAUGU
13,B13,0.0526 KA relative to UGCAUGU
14,B14,0.19 KA relative to UGCAUGU
15,B15,0.0668 KA relative to UGCAUGU
16,B16,0.0858 KA relative to UGCAUGU

row,Binder,binding signal
1,B17,0.0669 KA relative to UGCAUGU
2,B18,0.0802 KA relative to UGCAUGU
3,B19,0.133 KA relative to UGCAUGU
4,B20,0.0712 KA relative to UGCAUGU
5,B21,0.0845 KA relative to UGCAUGU
6,B22,0.0333 KA relative to UGCAUGU
7,B23,0.086 KA relative to UGCAUGU
8,B24,0.169 KA relative to UGCAUGU
9,B25,0.134 KA relative to UGCAUGU
10,B26,0.0595 KA relative to UGCAUGU
11,B27,0.0871 KA relative to UGCAUGU
12,B28,0.244 KA relative to UGCAUGU
13,B29,0.074 KA relative to UGCAUGU
14,B30,0.0743 KA relative to UGCAUGU
15,B31,0.0904 KA relative to UGCAUGU
